The other results are listed elsewhere or left out.
How the values were obtained:
Assay in all cases: glycan array binding signal (z-score within array); higher = stronger binding
Details in all cases: glycan notation: IUPAC condensed, linker removed
Fuc(a1-2)Gal = target: Fuc(a1-2)Gal
Procedure, shortened: (§1)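 The binding signal is a Z-score computed within each array. Data were drawn from 3228 arrays in the Consortium for Functional Glycomics database, restricted to those with a known protein sequence. Scores were averaged over arrays of the same protein sequence at different concentrations or buffers, and over linkers, and negative values can be taken as non-binding.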

Fuc(a1-2)Gal(b1-3)GalNAc = target: Fuc(a1-2)Gal(b1-3)GalNAc
Procedure, shortened: as §1

[1] = target: Fuc(a1-2)Gal(b1-3)GalNAc(b1-3)Gal
Procedure, shortened: as §1

[2] = target: Fuc(a1-2)Gal(b1-3)GalNAc(b1-3)Gal(a1-4)Gal(b1-4)Glc
Procedure, shortened: as §1

[3] = target: Fuc(a1-2)Gal(b1-3)GalNAc(b1-4)[Neu5Ac(a2-3)]Gal(b1-4)Glc
Procedure, shortened: as §1

Fuc(a1-2)Gal(b1-3)GlcNAc = target: Fuc(a1-2)Gal(b1-3)GlcNAc
Procedure, shortened: as §1

[4] = target: Fuc(a1-2)Gal(b1-3)GlcNAc(b1-3)Gal(b1-4)Glc
Procedure, shortened: as §1

[5] = target: Fuc(a1-2)Gal(b1-3)[Fuc(a1-4)]GlcNAc
Procedure, shortened: as §1

Fuc(a1-2)Gal(b1-4)Glc = target: Fuc(a1-2)Gal(b1-4)Glc
Procedure, shortened: as §1

Fuc(a1-2)Gal(b1-4)Glc6S = target: Fuc(a1-2)Gal(b1-4)Glc6S
Procedure, shortened: as §1

Fuc(a1-2)Gal(b1-4)GlcNAc = target: Fuc(a1-2)Gal(b1-4)GlcNAc
Procedure, shortened: as §1

[6] = target: Fuc(a1-2)Gal(b1-4)GlcNAc(b1-3)Gal(b1-4)GlcNAc
Procedure, shortened: as §1

[7] = target: Fuc(a1-2)Gal(b1-4)GlcNAc(b1-3)Gal(b1-4)GlcNAc(b1-3)Gal(b1-4)GlcNAc
Procedure, shortened: as §1

[8] = target: Fuc(a1-2)Gal(b1-4)GlcNAc6S
Procedure, shortened: as §1

[9] = target: Fuc(a1-2)Gal(b1-4)[Fuc(a1-3)]GlcNAc
Procedure, shortened: as §1

[10] = target: Fuc(a1-2)Gal(b1-4)[Fuc(a1-3)]GlcNAc(b1-3)Gal(b1-4)[Fuc(a1-3)]GlcNAc
Procedure, shortened: as §1

[11] = target: Fuc(a1-2)Gal(b1-4)[Fuc(a1-3)]GlcNAc(b1-3)Gal(b1-4)[Fuc(a1-3)]GlcNAc(b1-3)Gal(b1-4)[Fuc(a1-3)]GlcNAc
Procedure, shortened: as §1

Fuc(a1-2)Gal6S(b1-4)Glc = target: Fuc(a1-2)Gal6S(b1-4)Glc
Procedure, shortened: as §1

[12] = target: Fuc(a1-2)Gal6S(b1-4)Glc6S
Procedure, shortened: as §1

[13] = target: Fuc(a1-2)Gal6S(b1-4)GlcNAc
Procedure, shortened: as §1

Fuc(a1-2)GlcNAc = target: Fuc(a1-2)GlcNAc
Procedure, shortened: as §1

Fuc(a1-2)[Gal(a1-3)]Gal = target: Fuc(a1-2)[Gal(a1-3)]Gal
Procedure, shortened: as §1

[14] = target: Fuc(a1-2)[Gal(a1-3)]Gal(b1-3)GlcNAc
Procedure, shortened: as §1

[15] = target: Fuc(a1-2)[Gal(a1-3)]Gal(b1-4)Glc
Procedure, shortened: as §1

[16] = target: Fuc(a1-2)[Gal(a1-3)]Gal(b1-4)GlcNAc
Procedure, shortened: as §1

[17] = target: Fuc(a1-2)[Gal(a1-3)]Gal(b1-4)[Fuc(a1-3)]GlcNAc
Procedure, shortened: as §1

[18] = target: Fuc(a1-2)[Gal(a1-4)]Gal(b1-4)GlcNAc
Procedure, shortened: as §1

[19] = target: Fuc(a1-2)[GalNAc(a1-3)]Gal
Procedure, shortened: as §1

[20] = target: Fuc(a1-2)[GalNAc(a1-3)]Gal(b1-3)GlcNAc
Procedure, shortened: as §1

[21] = target: Fuc(a1-2)[GalNAc(a1-3)]Gal(b1-4)Glc
Procedure, shortened: as §1

[22] = target: Fuc(a1-2)[GalNAc(a1-3)]Gal(b1-4)GlcNAc
Procedure, shortened: as §1

[23] = target: Fuc(a1-2)[GalNAc(a1-3)]Gal(b1-4)[Fuc(a1-3)]GlcNAc
Procedure, shortened: as §1

[24] = target: Fuc(a1-2)[GalNAc(a1-4)]Gal(b1-4)GlcNAc
Procedure, shortened: as §1

[25] = target: Fuc(a1-2)[GalNAc(b1-3)]Gal
Procedure, shortened: as §1

Fuc(a1-3)GlcNAc = target: Fuc(a1-3)GlcNAc
Procedure, shortened: as §1

[26] = target: Fuc(a1-3)[Gal(b1-4)]Glc6S
Procedure, shortened: as §1

[27] = target: Fuc(a1-3)[Gal(b1-4)]GlcNAc
Procedure, shortened: as §1

[28] = target: Fuc(a1-3)[Gal(b1-4)]GlcNAc(b1-3)Gal(b1-3)[Fuc(a1-4)]GlcNAc
Procedure, shortened: as §1

[29] = target: Fuc(a1-3)[Gal(b1-4)]GlcNAc(b1-4)Gal(b1-4)[Fuc(a1-3)]GlcNAc
Procedure, shortened: as §1

[30] = target: Fuc(a1-3)[Gal(b1-4)]GlcNAc(b1-4)Gal(b1-4)[Fuc(a1-3)]GlcNAc(b1-4)Gal(b1-4)[Fuc(a1-3)]GlcNAc
Procedure, shortened: as §1

[31] = target: Fuc(a1-3)[Gal(b1-4)]GlcNAc6S
Procedure, shortened: as §1

[32] = target: Fuc(a1-3)[Gal3S(b1-4)]Glc6S
Procedure, shortened: as §1

[33] = target: Fuc(a1-3)[Gal3S(b1-4)]GlcNAc
Procedure, shortened: as §1

[34] = target: Fuc(a1-3)[Gal3S(b1-4)]GlcNAc6S
Procedure, shortened: as §1

[35] = target: Fuc(a1-3)[GalNAc(b1-4)]GlcNAc
Procedure, shortened: as §1

Fuc(a1-4)GlcNAc = target: Fuc(a1-4)GlcNAc
Procedure, shortened: as §1

Fuc(b1-3)GlcNAc = target: Fuc(b1-3)GlcNAc
Procedure, shortened: as §1

Gal(a1-2)Gal = target: Gal(a1-2)Gal
Procedure, shortened: as §1

Gal(a1-3)Gal = target: Gal(a1-3)Gal
Procedure, shortened: as §1

Gal(a1-3)Gal(b1-3)GlcNAc = target: Gal(a1-3)Gal(b1-3)GlcNAc
Procedure, shortened: as §1

Gal(a1-3)Gal(b1-4)Glc = target: Gal(a1-3)Gal(b1-4)Glc
Procedure, shortened: as §1

Gal(a1-3)Gal(b1-4)GlcNAc = target: Gal(a1-3)Gal(b1-4)GlcNAc
Procedure, shortened: as §1

[36] = target: Gal(a1-3)Gal(b1-4)[Fuc(a1-3)]GlcNAc
Procedure, shortened: as §1

Gal(a1-3)GalNAc = target: Gal(a1-3)GalNAc
Procedure, shortened: as §1

[37] = target: Gal(a1-3)[Gal(a1-4)]Gal(b1-4)GlcNAc
Procedure, shortened: as §1

Gal(a1-4)Gal(b1-4)Glc = target: Gal(a1-4)Gal(b1-4)Glc
Procedure, shortened: as §1

Gal(a1-4)Gal(b1-4)GlcNAc = target: Gal(a1-4)Gal(b1-4)GlcNAc
Procedure, shortened: as §1

Gal(a1-4)GlcNAc = target: Gal(a1-4)GlcNAc
Procedure, shortened: as §1

Gal(a1-6)Glc = target: Gal(a1-6)Glc
Procedure, shortened: as §1

Gal(b1-2)Gal = target: Gal(b1-2)Gal
Procedure, shortened: as §1

B1: Mindin (Homo sapiens), Q9BUD6 (protein)
chain: MENPSPAAALGKALCALLLATLGAAGQPLGGESICSARALAKYSITFTGKWSQTAFPKQYPLFRPPAQWSSLLGAAHSSDYSMWRKNQYVSNGLRDFAERGEAWALMKEIEAAGEALQSVHEVFSAPAVPSGTGQTSAELEVQRRHSLVSFVVRIVPSPDWFVGVDSLDLCDGDRWREQAALDLYPYDAGTDSGFTFSSPNFATIPQDTVTEITSSSPSHPANSFYYPRLKALPPIARVTLVRLRQSPRAFIPPAPVLPSRDNEIVDSASVPETPLDCEVSLWSSWGLCGGHCGRLGTKSRTRYVRVQPANNGSPCPELEEEAECVPDNCV
Q: What does the source list for B1?
A: glycan array binding signal (z-score) (Fuc(a1-2)Gal): -0.273; glycan array binding signal (z-score) (Fuc(a1-2)Gal(b1-3)GalNAc): -0.365; glycan array binding signal (z-score) [1]: -0.28; glycan array binding signal (z-score) [2]: -0.231; glycan array binding signal (z-score) [3]: -0.183; glycan array binding signal (z-score) (Fuc(a1-2)Gal(b1-3)GlcNAc): -0.276; glycan array binding signal (z-score) [4]: -0.264; glycan array binding signal (z-score) [5]: -0.24; glycan array binding signal (z-score) (Fuc(a1-2)Gal(b1-4)Glc): -0.24; glycan array binding signal (z-score) (Fuc(a1-2)Gal(b1-4)Glc6S): -0.385; glycan array binding signal (z-score) (Fuc(a1-2)Gal(b1-4)GlcNAc): -0.27; glycan array binding signal (z-score) [6]: -0.186; glycan array binding signal (z-score) [7]: 0.4; glycan array binding signal (z-score) [8]: -0.37; glycan array binding signal (z-score) [9]: -0.185; glycan array binding signal (z-score) [10]: 0.005; glycan array binding signal (z-score) [11]: -0.231; glycan array binding signal (z-score) (Fuc(a1-2)Gal6S(b1-4)Glc): -0.378; glycan array binding signal (z-score) [12]: -0.173; glycan array binding signal (z-score) [13]: 0.142; glycan array binding signal (z-score) (Fuc(a1-2)GlcNAc): -0.191; glycan array binding signal (z-score) (Fuc(a1-2)[Gal(a1-3)]Gal): -0.31; glycan array binding signal (z-score) [14]: -0.103; glycan array binding signal (z-score) [15]: -0.248; glycan array binding signal (z-score) [16]: -0.339; glycan array binding signal (z-score) [17]: -0.133; glycan array binding signal (z-score) [18]: 0.614; glycan array binding signal (z-score) [19]: -0.311; glycan array binding signal (z-score) [20]: -0.329; glycan array binding signal (z-score) [21]: -0.308; glycan array binding signal (z-score) [22]: -0.266; glycan array binding signal (z-score) [23]: -0.23; glycan array binding signal (z-score) [24]: 2.81; glycan array binding signal (z-score) [25]: 0.777; glycan array binding signal (z-score) (Fuc(a1-3)GlcNAc): -0.29; glycan array binding signal (z-score) [26]: -0.298; glycan array binding signal (z-score) [27]: -0.326; glycan array binding signal (z-score) [28]: -0.367; glycan array binding signal (z-score) [29]: -0.142; glycan array binding signal (z-score) [30]: -0.283; glycan array binding signal (z-score) [31]: -0.322; glycan array binding signal (z-score) [32]: -0.125; glycan array binding signal (z-score) [33]: -0.223; glycan array binding signal (z-score) [34]: -0.133; glycan array binding signal (z-score) [35]: -0.316; glycan array binding signal (z-score) (Fuc(a1-4)GlcNAc): -0.291; glycan array binding signal (z-score) (Fuc(b1-3)GlcNAc): -0.24; glycan array binding signal (z-score) (Gal(a1-2)Gal): -0.306; glycan array binding signal (z-score) (Gal(a1-3)Gal): -0.238; glycan array binding signal (z-score) (Gal(a1-3)Gal(b1-3)GlcNAc): -0.194; glycan array binding signal (z-score) (Gal(a1-3)Gal(b1-4)Glc): -0.092; glycan array binding signal (z-score) (Gal(a1-3)Gal(b1-4)GlcNAc): -0.013; glycan array binding signal (z-score) [36]: 0.093; glycan array binding signal (z-score) (Gal(a1-3)GalNAc): -0.235; glycan array binding signal (z-score) [37]: 0.454; glycan array binding signal (z-score) (Gal(a1-4)Gal(b1-4)Glc): -0.229; glycan array binding signal (z-score) (Gal(a1-4)Gal(b1-4)GlcNAc): -0.141; glycan array binding signal (z-score) (Gal(a1-4)GlcNAc): -0.263; glycan array binding signal (z-score) (Gal(a1-6)Glc): -0.311; glycan array binding signal (z-score) (Gal(b1-2)Gal): -0.323

Source: the supplement of paper PMC8728848
